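How tested: cells in 96-well plates exposed to compound for 48 hours at five concentrations. The concentration for 50% growth inhibition is given as GI50. TGI: concentration producing complete growth inhibition.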

In this assay the test system is NCI-H322M lung. Briefly: NCI anticancer screen, dose series, 48 h.
Turning to `C[C@@H]1CN(c2ccc3ncc(C#Cc4cncc(C(=O)Nc5ccc(CN6CCN(C)CC6)c(C(F)(F)F)c5)c4)n3n2)C[C@H](C)O1`, the GI50 is 0.0525 µM and the TGI came to 0.36 µM.

Consider `CN1CCN(Cc2ccc(NC(=O)c3cncc(C#Cc4cnc5ccc(N6CCN(C)CC6)nn45)c3)cc2C(F)(F)F)CC1`, for which the GI50 was 1.88 µM and the TGI worked out at 4.13 µM.

Regarding `FC(F)(F)c1cc(Nc2cccc(Oc3ccc(NC4=NCCN4)nc3)c2)ccc1Cl`, the GI50 was 2.4 µM and the TGI was 6.57 µM.

The record behind these values is PubChem BioAssay (NCI).
